This is an account of results in PubChem BioAssay AID1346428 (National Center for Advancing Translational Sciences (NCATS), 2018).

Where “and” joins values, the source holds several entries; their conditions need not be identical. Identical values can stand only once. Screen size: about 48,000 compounds; about 1,200 (2.5%) were called active. About 2% were inconclusive and are not listed.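 How the source made its calls: active means activation of at least 60% and not above a set upper limit (about 1 call in 100 departs from these limits); inconclusive means activation of 40% to 60%, or above that upper limit; inactive means activation under 40%.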 This is one part of the list. A structure can be active in one record and inactive in another.

The assay concerns the target Probable G-protein coupled receptor 32 (Homo sapiens) (UniProt O75388). Put plainly: qHTS for Agonists of Human Resolvin D1 Receptor DRV1. Further: 0% is about no effect. The note with it: CHO-K1 GPR32 beta-arrestin PathHunter luminescence, 90 min; at 76.9 µM; stronger effect = higher value; zero percent set by DMSO-only wells. In outline: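 Luminescent readout of beta-Gal complementation quantifies ligand-induced beta-arrestin association with GPR32 in CHO-K1 cells; 90 min compound incubation at 37 °C, detection 1 h at room temperature.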
Chain of UniProt O75388 (O75388 whole entry, looked up): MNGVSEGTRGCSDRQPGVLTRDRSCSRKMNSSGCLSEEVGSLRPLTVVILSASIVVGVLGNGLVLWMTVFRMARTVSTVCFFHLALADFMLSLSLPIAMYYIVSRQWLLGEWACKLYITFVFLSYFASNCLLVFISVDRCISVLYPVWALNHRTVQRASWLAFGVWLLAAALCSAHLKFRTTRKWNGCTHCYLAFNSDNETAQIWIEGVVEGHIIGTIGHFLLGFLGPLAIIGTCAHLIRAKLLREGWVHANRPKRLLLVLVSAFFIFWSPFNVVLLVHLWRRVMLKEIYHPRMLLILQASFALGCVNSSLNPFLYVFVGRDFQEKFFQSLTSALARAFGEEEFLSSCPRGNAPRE
(In general: Quantitative high-throughput screening tests each substance at several concentrations.)
In the case of `CCn1c(=O)sc2cc(NS(=O)(=O)c3ccc(C)cc3)ccc21`, the activation is active: 60.6%. For the molecule `CC(=O)Nc1ccc(NC(=O)c2ccc3c(c2)NC(=O)c2ccccc2S3)cc1`, the activation was inactive: -5.46%. Take `CCc1ccc2c(c1)NC(c1ccc(C)cc1)=NC(c1cccs1)=N2`: the activation was inactive: -33.6%. For `Cc1ccccc1OCC(=O)Nc1ccc2nc(SCC(=O)N3CCc4ccccc43)sc2c1`, the activation was inactive: 9.84%. On to `Cc1cccc(N2CCN(S(=O)(=O)c3ccc(-c4cc(C(F)(F)F)on4)s3)CC2)c1C`, for which the activation is inactive: -1.41%.

On to `O=C(C1CCCN(S(=O)(=O)c2ccc(Br)s2)C1)N1CCN(c2cccc(Cl)c2)CC1` (configuration not stated), for which the activation was inactive: -5.38%.

For the molecule `COc1ccccc1C1Nc2c(sc3nc(C)cc(C)c23)C(=O)N1c1ccccc1` (configuration not stated), the activation was inactive: -25.3%. Turning to `Cc1ccc(CNc2ncnc3c2cnn3-c2ccc(Cl)cc2)cc1`, the activation is inactive: -7.66%. With `OCc1cc(C(O)CNCCCCCCOCCCCc2ccccc2)ccc1O` (configuration not stated), the activation was active: 108% and inactive: -1.18%. The value for `CCC(C)Sc1oc(-c2ccco2)nc1S(=O)(=O)c1ccc(C)cc1` (configuration not stated) was inactive: -13.8%.

Regarding `COc1cccc(C2C(C(=O)Nc3ccc(Cl)cc3)=C(C)Nc3nc4ccccc4n32)c1` (configuration not stated), the activation is inactive: 12.6%. The value for `COc1ccc(OCC(=O)Nc2cc(-c3nc4ccccc4s3)ccc2C)cc1` was inactive: -4.02%; that for `C#CCN1C(C)=C(C(=O)OC)C(c2cccc([N+](=O)[O-])c2)C(C(=O)OCC)=C1C` (configuration not stated) was inactive: -29.8%. `COc1ccc(Cl)cc1NC(=O)c1nnn(Cc2cccc(C(F)(F)F)c2)c1N`: the activation was inactive: -10.3%. To `COc1ccc2c(c1)c1c(c(=O)n(-c3ccc(C)cc3)c(=O)n1CC(=O)NCc1ccc(C)cc1)n2C` belongs inactive: 8.54%; to `Cc1cc2c(cc1C)NC(CC(=O)Nc1cccc(Cl)c1)C(=O)N2` (configuration not stated), inactive: -20.1%; to `NS(=O)(=O)c1ccc(CCNC(=O)Cn2c(-c3cccs3)cc3ccccc32)cc1`, inactive: 2.26%. `O=C(O)Cc1sc(-c2ccccc2)nc1-c1ccc(Cl)cc1`: the activation was inactive: 34.8%.

On to `CC(=O)OCC(=O)[C@@]12N=C(C)O[C@@H]1C[C@H]1[C@@H]3CCC4=CC(=O)C=C[C@]4(C)[C@H]3[C@@H](O)C[C@@]12C`, for which the activation was inactive: -11.1%. Regarding `O=C(NCC(c1ccc2c(c1)OCO2)N1CCOCC1)C(=O)Nc1ccccc1` (configuration not stated), the activation was inactive: -3.3%. For `CCN(CC)c1ccc(NC(=O)CCc2nc3cccnc3n2Cc2cccs2)c(C)c1`, the activation was inactive: -3.51%.

Take `C=CCc1cccc2cc(C(=O)NCCc3c(C)[nH]c4c(C)cccc34)c(=O)oc12`: the activation is inactive: 37.4%. The value for `CNc1ccc(-c2nc(-c3ccco3)no2)cc1[N+](=O)[O-]` was inactive: -6.09%; that for `Cc1ccccc1NC(=O)c1ccc2c(O)c(S(=O)(=O)c3ccccc3)c(=O)[nH]c2c1` was inactive: -9.94%. The value for `CCOC(=O)N1CCC(NC(=O)c2cnn(-c3ccc(F)cc3F)c2C2CCN(C(=O)OC(C)(C)C)CC2)CC1` was inactive: -15.8%; that for `O=C(NCC(c1ccc2c(c1)OCO2)N1CCOCC1)C(=O)Nc1ccc(F)cc1F` (configuration not stated) was inactive: -9.85%.

As to `COc1cc2[nH]c(=O)n(Cc3ccc(C(=O)N4CCN(c5cc(Cl)ccc5C)CC4)cc3)c(=O)c2cc1OC`, the activation is inactive: -3.9%. As to `COc1ccc(N(Cc2cccs2)C(=O)c2ccc(C(C)(C)C)cc2)cc1`, the activation was inactive: -35.6%. In the case of `CC(=O)Nc1ccc(CC(=O)O)cc1`, the activation was inactive: -3.73%. Consider `O=C(Nc1cccc(Cl)c1)N1CCC(CN2CCOCC2)CC1`, for which the activation is inactive: 3.84%. On to `O=C(CN1C(=O)CC(c2ccco2)Sc2ccccc21)Nc1ccc(C(F)(F)F)cc1` (configuration not stated), for which the activation is inactive: -6.71%. As to `O=C(Cn1cnc2c(oc3ccccc32)c1=O)Nc1ccc(OC(F)(F)F)cc1`, the activation is inactive: 7.84%. In the case of `Cc1ccc(CNC(=O)c2ccc3c(c2)N(Cc2ccccc2)C(=O)c2ccccc2S3(=O)=O)cc1`, the activation is inactive: -25.4%. Regarding `COc1ccccc1CNC(=O)Cc1csc2nc(-c3ccccc3)cn12`, the activation is inactive: -11.7%.

With `CC(C)(C)c1ccc(S(=O)(=O)c2cn(CC(=O)Nc3ccccc3)c3ccccc3c2=O)cc1`, the activation was inactive: -2.4%.

As to `Cc1cccc(CCNC(=O)c2cnc3c(C)cccn3c2=O)c1`, the activation is inactive: -7.28%. Consider `Cc1ccc2c(c1)N(C(=O)C1CCN(S(=O)(=O)c3c(C)noc3/C=C/c3ccccc3F)CC1)CCO2`, for which the activation is inactive: -25.3%. As for `CCn1c(SCc2ccc(F)cc2Cl)nnc1-c1nonc1NC(C)=O`, the activation is inactive: 5.8%. As to `CCOC(=O)c1ccc(NC(=O)c2c(C)nn(-c3ccc(F)cc3)c2-n2cccc2)cc1`, the activation was inactive: -0.666%. Consider `O=C(CCC1N=C2c3ccccc3N=C(SCc3ccccc3F)N2C1=O)NCCc1ccccc1` (configuration not stated), for which the activation is inactive: -22.2%. With `Cc1cc(C)c(NC(=O)Cn2ccn(-c3cccc(Cl)c3)c(=O)c2=O)c(C)c1`, the activation is inactive: -4.78%.

For the molecule `COC(=O)C1CCN(CC(=O)Nc2cc(C)c3c(=O)oc4ccccc4c3n2)CC1`, the activation is inactive: 17.6%. To `COc1ccc(N(C(=O)c2cccc(C)c2)S(=O)(=O)c2ccc(C)cc2)cc1` belongs inactive: -5.4%; to `O=C(Nc1nnc(S(=O)(=O)N2CCCc3ccccc32)s1)c1cccc(F)c1`, inactive: 45.3%; to `Fc1ccc(-n2ncc3c(N4CCC(Cc5ccccc5)CC4)ncnc32)cc1`, inactive: -6.38%. As to `CCOc1ccccc1CNC(=O)c1ccc(NC(=O)N2CCSc3ncccc32)cc1`, the activation was inactive: 4.37%.

With `COc1ccc(CNC(=O)CCNS(=O)(=O)c2cccc3nsnc23)cc1`, the activation was inactive: 8.01%. For `COc1ccc2c(Sc3ccccc3)c(C(=O)NCCCN3CCCCC3)[nH]c2c1`, the activation was inactive: -15.6%.

For `COc1ccc(/C=C/C(=O)Nc2nc3n(n2)C(c2ccccc2)C=C(c2ccc(Cl)cc2)N3)cc1` (configuration not stated), the activation was inactive: -10.3%. As for `COc1ccc(OC)c(CNC(=O)Cn2nc(C)c3nn(-c4ccc(Cl)cc4)c(C)c3c2=O)c1`, the activation is inactive: -16.2%. The value for `COc1ccc2oc(=O)c(-c3cn4c(n3)sc3cc(OC)ccc34)cc2c1` was inactive: -12.3%; that for `CCc1ccccc1NC(=O)Nc1nnc(N(C)Cc2ccccc2)s1` was inactive: -20.8%.
